# Measured values from the supplement of paper PMC8728848.
# The other results are listed elsewhere or left out.
# B1: Regenerating Gene I (Homo sapiens), P05451 (protein)
# chain: MAQTSSYFMLISCLMFLSQSQGQEAQTELPQARISCPEGTNAYRSYCYYFNEDRETWVDADLYCQNMNSGNLVSVLTQAEGAFVASLIKESGTDDFNVWIGLHDPKKNRRWHWSSGSLVSYKSWGIGAPSSVNPGYCVSLTSSTGFQKWKDVPCEDKFSFVCKFKN
# Tests used:
# Experiment in all cases: glycan array binding signal (z-score within array); higher = stronger binding
# Conditions in all cases: glycan notation: IUPAC condensed, linker removed
# [1] = biological target: Neu5Ac(a2-6)Gal(b1-4)GlcNAc(b1-2)Man(a1-3)[Gal(b1-4)GlcNAc(b1-2)Man(a1-6)]Man(b1-4)GlcNAc(b1-4)GlcNAc
# Procedure, shortened: (§1)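 Negative Z-scores can be read as non-binding. The Z-score is calculated within each array and then averaged across arrays of one protein sequence at different concentrations or buffers and across linkers. Arrays, 3228 in all, were curated from the Consortium for Functional Glycomics database and kept only where the protein sequence was available.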
# [2] = biological target: Neu5Ac(a2-6)Gal(b1-4)GlcNAc(b1-2)Man(a1-3)[GlcNAc(b1-2)Man(a1-6)]Man(b1-4)GlcNAc(b1-4)GlcNAc
# Procedure, shortened: as §1
# [3] = biological target: Neu5Ac(a2-6)Gal(b1-4)GlcNAc(b1-2)Man(a1-3)[GlcNAc(b1-2)Man(b1-4)GlcNAc(b1-2)Man(a1-6)]Man(b1-4)GlcNAc(b1-4)GlcNAc
# Procedure, shortened: as §1
# [4] = biological target: Neu5Ac(a2-6)Gal(b1-4)GlcNAc(b1-2)Man(a1-3)[Neu5Ac(a2-6)Gal(b1-4)GlcNAc(b1-2)Man(a1-6)]Man(b1-4)GlcNAc(b1-4)GlcNAc
# Procedure, shortened: as §1
# [5] = biological target: Neu5Ac(a2-6)Gal(b1-4)GlcNAc(b1-2)Man(a1-6)[Gal(b1-4)GlcNAc(b1-2)Man(a1-3)]Man(b1-4)GlcNAc(b1-4)GlcNAc
# Procedure, shortened: as §1
# [6] = biological target: Neu5Ac(a2-6)Gal(b1-4)GlcNAc(b1-2)Man(a1-6)[GlcNAc(b1-2)Man(a1-3)]Man(b1-4)GlcNAc(b1-4)GlcNAc
# Procedure, shortened: as §1
# [7] = biological target: Neu5Ac(a2-6)Gal(b1-4)GlcNAc(b1-3)Gal(b1-4)GlcNAc
# Procedure, shortened: as §1
# [8] = biological target: Neu5Ac(a2-6)Gal(b1-4)GlcNAc(b1-3)Gal(b1-4)[Fuc(a1-3)]GlcNAc(b1-3)Gal(b1-4)[Fuc(a1-3)]GlcNAc
# Procedure, shortened: as §1
# [9] = biological target: Neu5Ac(a2-6)Gal(b1-4)GlcNAc6S
# Procedure, shortened: as §1
# Neu5Ac(a2-6)GalNAc = biological target: Neu5Ac(a2-6)GalNAc
# Procedure, shortened: as §1
# [10] = biological target: Neu5Ac(a2-6)GalNAc(b1-4)GlcNAc
# Procedure, shortened: as §1
# Neu5Ac(a2-8)Neu5Ac = biological target: Neu5Ac(a2-8)Neu5Ac
# Procedure, shortened: as §1
# [11] = biological target: Neu5Ac(a2-8)Neu5Ac(a2-3)Gal(b1-4)Glc
# Procedure, shortened: as §1
# [12] = biological target: Neu5Ac(a2-8)Neu5Ac(a2-3)[GalNAc(b1-4)]Gal(b1-4)Glc
# Procedure, shortened: as §1
# [13] = biological target: Neu5Ac(a2-8)Neu5Ac(a2-8)Neu5Ac
# Procedure, shortened: as §1
# [14] = biological target: Neu5Ac(a2-8)Neu5Ac(a2-8)Neu5Ac(a2-3)Gal(b1-4)Glc
# Procedure, shortened: as §1
# [15] = biological target: Neu5Ac(a2-8)Neu5Ac(a2-8)Neu5Ac(a2-3)[GalNAc(b1-4)]Gal(b1-4)Glc
# Procedure, shortened: as §1
# [16] = biological target: Neu5Ac(a2-8)Neu5Ac(a2-8)Neu5Ac(a2-8)Neu5Ac(a2-3)[GalNAc(b1-4)]Gal(b1-4)Glc
# Procedure, shortened: as §1
# [17] = biological target: Neu5Ac(b2-6)Gal(b1-4)GlcNAc
# Procedure, shortened: as §1
# Neu5Ac(b2-6)GalNAc = biological target: Neu5Ac(b2-6)GalNAc
# Procedure, shortened: as §1
# [18] = biological target: Neu5Ac9Ac(a2-6)Gal(b1-4)GlcNAc
# Procedure, shortened: as §1
# [19] = biological target: Neu5Gc(a2-3)Gal(b1-3)GlcNAc
# Procedure, shortened: as §1
# [20] = biological target: Neu5Gc(a2-3)Gal(b1-3)[Fuc(a1-4)]GlcNAc
# Procedure, shortened: as §1
# Neu5Gc(a2-3)Gal(b1-4)Glc = biological target: Neu5Gc(a2-3)Gal(b1-4)Glc
# Procedure, shortened: as §1
# [21] = biological target: Neu5Gc(a2-3)Gal(b1-4)GlcNAc
# Procedure, shortened: as §1
# [22] = biological target: Neu5Gc(a2-3)Gal(b1-4)[Fuc(a1-3)]GlcNAc
# Procedure, shortened: as §1
# [23] = biological target: Neu5Gc(a2-6)Gal(b1-4)GlcNAc
# Procedure, shortened: as §1
# Neu5Gc(a2-6)GalNAc = biological target: Neu5Gc(a2-6)GalNAc
# Procedure, shortened: as §1
# [24] = biological target: Neu5Gc(b2-6)Gal(b1-4)GlcNAc
# Procedure, shortened: as §1
binder,measurement,setting,value
B1,glycan array binding signal (z-score),[1],-0.23
same,glycan array binding signal (z-score),[2],-0.412
same,glycan array binding signal (z-score),[3],-0.446
same,glycan array binding signal (z-score),[4],-0.473
same,glycan array binding signal (z-score),[5],-0.33
same,glycan array binding signal (z-score),[6],-0.079
same,glycan array binding signal (z-score),[7],-0.538
same,glycan array binding signal (z-score),[8],-0.304
same,glycan array binding signal (z-score),[9],-0.619
same,glycan array binding signal (z-score),Neu5Ac(a2-6)GalNAc,-0.4
same,glycan array binding signal (z-score),[10],-0.493
same,glycan array binding signal (z-score),Neu5Ac(a2-8)Neu5Ac,0.315
same,glycan array binding signal (z-score),[11],-0.532
same,glycan array binding signal (z-score),[12],-0.445
same,glycan array binding signal (z-score),[13],-0.385
same,glycan array binding signal (z-score),[14],-0.596
same,glycan array binding signal (z-score),[15],-0.518
same,glycan array binding signal (z-score),[16],-0.527
same,glycan array binding signal (z-score),[17],-0.404
same,glycan array binding signal (z-score),Neu5Ac(b2-6)GalNAc,-0.57
same,glycan array binding signal (z-score),[18],0.261
same,glycan array binding signal (z-score),[19],0.068
same,glycan array binding signal (z-score),[20],-0.332
same,glycan array binding signal (z-score),Neu5Gc(a2-3)Gal(b1-4)Glc,-0.281
same,glycan array binding signal (z-score),[21],-0.484
same,glycan array binding signal (z-score),[22],-0.453
same,glycan array binding signal (z-score),[23],-0.469
same,glycan array binding signal (z-score),Neu5Gc(a2-6)GalNAc,0.667
same,glycan array binding signal (z-score),[24],0.693
